Source: PubChem BioAssay AID1508624 (National Center for Advancing Translational Sciences (NCATS), 2021)
Hit rate of the full screen: of about 48,000 compounds, about 120 (0.25%) were called active. Another 4% or so got no clear call; they are omitted. Calls come from the whole dose curve; as a rule, active = well fitted activation curve with a large enough effect; inconclusive = small, poorly fitted or top-dose-only effect, or another doubt; inactive = no such curve, though single readings can be large or run the other way. The list shows a part of the results.

assay: Primary qHTS for Identification of Small Molecule Activators of Huntingtin-Antisense Promoter Activity; settings: HEK293 HTT-AS promoter firefly luciferase reporter, 24 h; series mostly up to 57.5 µM; activity change, positive = activation: at the top concentration; note: nearly all actives have a fitted effect of over 55% in size
In short: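 HEK293 Fluc reporter, 2,500 cells/well, 24 h pre-culture; cpds up to 57.5 uM final, 24 h 37 degrees C; Dual-Glo, 10 min RT; normalized vehicle = 0%, zero RLU = -100%.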

Activity change, positive = activation, inactive:
CCOc1ccc(NC(=O)Cn2nnc(C(=O)NCCc3ccccc3)c2N)cc1 -16.2%, COc1ccc(-c2noc(-c3ccc(NCC4CCCO4)c([N+](=O)[O-])c3)n2)cc1 (centres undefined) -2.81%, CNC(=O)c1c(NC(=O)Cc2coc3ccc(C)cc23)sc2c1CCCC2 -16.3%, CCc1nn(CC(=O)Nc2c(C)cccc2C)c(=O)c2cc3sccc3n12 -10.1%, O=C(CSc1nc2c([nH]c3ccccc32)c(=O)n1-c1ccccc1)Nc1ccc(Cl)c(Cl)c1 -33.9%, Cc1ccc(CCNC(=O)c2cn(C)c3ccc(S(=O)(=O)N4CCC(C)CC4)cc3c2=O)cc1 -5.46% [at 11.5 µM, percent change from vehicle, -100% = no light], Cc1cc(C)c(NC(=O)CCCn2c(C)c3cnn(-c4ccccc4)c(=O)c3c2C)c(C)c1 -25.1%, CC(C)CC(=O)Nc1nnc(SCc2cc(=O)n3ccccc3n2)s1 -16.4%, COc1cc(OC)cc(-c2nc3nc(C)c(CCC(=O)NCCC(C)C)c(C)n3n2)c1 -0.0054%, CCOC(=O)c1c(S(=O)(=O)NCC(=O)Nc2ccc(F)cc2C)c(C)n(C)c1C -7.8%, CCN(CC)S(=O)(=O)c1ccc2[nH]cc(C(=O)NCCc3ccccc3)c(=O)c2c1 -36.3%, O=c1c(S(=O)(=O)c2cccc(Cl)c2)cn(Cc2ccccc2)c2cc(N3CCCCC3)c(F)cc12 0.65%, COc1ccccc1NC(=O)CN1C(=O)CSc2ccc(S(=O)(=O)N3CCCC3)cc21 -15.1%, CCn1ccc2cc(S(=O)(=O)N3CCC(C(=O)NCCc4ccccc4)CC3)ccc21 -15.8%, CC(=O)C1=C(c2ccc(Br)cc2)N(C(C)=O)n2c(nnc2C2CCCCC2)S1 -2.97%, COc1cc(OC)c(NC(=O)c2c(C)oc3nc(C)nc(N4CCOCC4)c23)cc1Cl -0.358%, COc1cccc(-n2cc(C(=O)OCc3ccc(Cl)cc3)c3ccccc3c2=O)c1 -26.6%, Cc1cccc(CNC(=O)c2ccc(C)c(-n3c(C)nc4cccnc43)c2)c1 -9.89%, CCOc1ccc(-n2c(=O)c3c(C)c(C)sc3n(CC(=O)N3CCC(C)CC3)c2=O)cc1 11.8%, O=C(NCc1ccccc1Cl)c1ccc(Cn2c(=O)c3cccn3c3cccnc32)cc1 -24.7%, CCCCOc1cccc(NC(=O)c2cccc(C(=O)Nc3cccc(OCCCC)c3)c2)c1 17.3%, CCOC(=O)c1c(C)oc2nc(C)nc(NCc3cccc(Cl)c3)c12 -15.9%, O=C(c1cccc(Cl)c1)n1nc(-c2cccnc2)nc1NCc1ccccc1 10.5%, CCOC(=O)C1=C(N)Oc2ccc(Br)cc2C1C(C#N)C(=O)OCC (centres undefined) 0.793%, CCOC(=O)c1nc(Nc2ccc(C(=O)OC)cc2)c2ccccc2n1 -18%, CSCCC(NS(=O)(=O)c1ccc2c(c1)oc(=O)n2C)C(=O)N1CCN(c2ccc(C(C)=O)cc2)CC1 (centres undefined) -0.406%, COc1cccc(C(=O)NCC(=O)OCc2cc(=O)n3ccsc3n2)c1 -9.88%, CCc1ccccc1NC(=O)c1ccc(=O)n(Cc2ccc(F)cc2)c1 -12.3%, CCc1ccc(-n2c(=O)c3cccnc3n2CC(=O)Nc2cc(OC)ccc2OC)cc1 -4.04%, COc1cc(OC)cc(C(=O)Nc2nnc3n2CCS3)c1 -19%, Cc1ccc(C(=O)Nc2nc(-c3nnn(-c4cccc(C(F)(F)F)c4)c3C)ns2)cc1 -15.9%, O=C(O)CCc1nnc2cnc3ccccc3n12 3.01%, Cc1ccc2ncc(C(=O)NC(C)c3ccccc3)c(=O)n2c1 (centres undefined) -23.7%, CC(=O)N1CCC2(CC1)OC(=O)C(C)=C2C(=O)NCc1cccc(Cl)c1 -7.98%, Cc1ccc(N2C(=O)CS(=O)(=O)C23C(=O)N(C)c2ccccc23)cc1F (centres undefined) -22.9%, Cc1ccc(C)c(Nc2cc(C(=O)NCCCN(C)C3CCCCC3)c3ccccc3n2)c1 -21.4%, Cc1ccc(N2CCN(C(=O)c3c(C)oc4ncnc(N5CCOCC5)c34)CC2)c(C)c1 -6.49%, COc1cc(NC(=O)NCC2CCN(Cc3ccc(C)cc3)CC2)cc(OC)c1OC -13.2%, Cc1ccc(C(=O)Nc2nnc(S(=O)(=O)N3CCN(c4ccc(F)cc4)CC3)s2)cc1 4.14%, Cc1ccc(CN2CCCn3nc(C(=O)NCc4cc(C)ccc4C)cc3C2=O)cc1 -20.7%, C[N+](C)(C)CC(O)CC(=O)[O-] (centres undefined) -13%, Cc1ccc(CNC(=O)c2cnc3c(-c4ccccc4)c(C)nn3c2C)o1 6.56%, COCCCNC(=O)c1cnn(-c2ccc(F)cc2F)c1C1CCNCC1 -18.9%, O=C(Cn1c(=O)oc2cc(S(=O)(=O)NCc3ccccc3)ccc21)NCc1ccccc1Cl -34.6%, COc1ccc(NC(=O)CC2C(=O)N(c3ccc(F)cc3)C(=O)N2CCc2sccc2C)cc1 (centres undefined) -46.6%, CCOC(=O)c1cc(-c2ccccc2)n(CCC(=O)Nc2cc(C)cc(C)c2)c1C -32.1%, CN(Cc1ccccc1)C(=O)C1CCC(CNS(=O)(=O)c2ccc3c(c2)CCCC(=O)N3)CC1 (centres undefined) -27.2%, CC(C)C(=O)Nc1ncc(-c2cc(C(F)F)nn2-c2c(Cl)cccc2Cl)s1 -37.8%, COc1cc([C@H]2Oc3cc([C@H]4Oc5cc(O)cc(O)c5C(=O)[C@@H]4O)ccc3O[C@@H]2CO)ccc1O -16.3%, Cc1ccc(N2CCN(C(=O)C3CCN(c4ncnc5c4nc4n5CCCCC4)CC3)CC2)c(C)c1 -14.7%, Cc1ccc2nc(NC(=O)c3nc(SCc4ccccc4C)ncc3Cl)sc2c1 -12.9%, N#C/C(=C1/SC[C@@H](c2ccc(Cl)cc2Cl)S1)n1ccnc1 -50.8%, CCOC(=O)C(=O)Nc1nnc2n1CCS2 -13.8%, COc1ccc(NC(=O)Cn2c(=O)n(Cc3ccccc3)c(=O)c3oc4ccccc4c32)cc1Cl 6.97%, Cc1nc2c(C(=O)NCc3ccccc3Cl)cnn2c(C)c1Cc1ccccc1 -9.74%, Cc1ccc(C)c(-n2cc(-c3ccccc3)nc2SCC(=O)Nc2ccccc2)c1 -24.7%, Cc1nc(N2CCCC2)ncc1C(=O)N1CCN(c2ccc(Cl)cc2)CC1 -16.9%, Cn1cc(S(=O)(=O)N2CCCCC2)cc1C(=O)N1CCN(c2ccccc2F)CC1 -21.2%, Cc1nc2n(c(=O)c1CCN1CCC(c3noc4cc(F)ccc34)CC1)CCC[C@H]2O -1.23% [at 25.1 µM, percent change from vehicle, -100% = no light], O=C(CSc1nc2c([nH]c3ccccc32)c(=O)n1-c1ccc(Cl)cc1)N1CCCCCC1 -14.2%, COc1cccc(-c2csc(-c3c(N)c(C(=O)c4ccccc4)n4ccccc34)n2)c1 10.3%, CCOC(=O)c1ccccc1NC(=O)Cn1c(=O)n(CCCC(=O)NCc2ccc3c(c2)OCO3)c(=O)c2ccccc21 -10%, CCCCOc1cc(C(=O)OCCN(CC)CC)ccc1N -2.21%, CCc1cccc(NC(=O)CSc2ncc3c(n2)-c2ccccc2N(CC)S3(=O)=O)c1 -40%, COc1ccc(NC(=O)C(C)n2nc(-c3cc(C)ccc3C)c3c(c2=O)CCCC3)cc1 (centres undefined) -36.5%, O=C(NCCc1ccccc1)C(=O)NCC(c1ccco1)S(=O)(=O)c1ccccc1 (centres undefined) -14.7%, COCCCNC(=O)CCC(=O)NNc1nc2ccccc2c2nc(-c3ccccc3)nn12 -6.76%, COCCNC(=O)CSc1nc2cc3c(cc2c(=O)n1Cc1ccc(C(=O)NCCc2ccc(OC)c(OC)c2)cc1)OCO3 -3.21%, CCOc1ccc(NC(=O)CSc2nnc(-c3ccncc3)n2-c2ccccc2)cc1 1.88%, Nc1c[n+](N2CCOCC2)no1 -3.15%, COc1ccc(CNC(=O)c2ccc(CSc3nc4ccncc4n3Cc3ccccc3F)cc2)cc1 -6.44%, Cc1cc(Nc2cc(N3CCN(C)CC3)nc(Sc3ccc(NC(=O)C4CC4)cc3)n2)n[nH]1 -15.8%, CN1CCN(CCCNC(=O)Cn2c(-c3cccs3)cc3cc(Cl)ccc32)CC1 -24.4%, Cc1ccc(CN2COc3cc(C)c4c(oc(=O)c5ccccc54)c3C2)cc1 -2.55%, CCOc1ccc(NC(=O)c2cnn(-c3ccc(C)c(Cl)c3)c2C2CCNCC2)cc1 -16.1%, COc1cc(OC)c(NC(=O)C(NS(=O)(=O)c2cccc3nsnc23)c2ccccc2)cc1Cl (centres undefined) -11.9%, COC(=O)C1=CO[C@@H](O)[C@@H]2C(CO)=CC[C@@H]12 -0.98%, CCOc1cc(C2NC(=O)c3c(sc4c3CCN(C)C4)N2)ccc1OC(=O)c1ccccc1Cl (centres undefined) -35.1%, COc1ccc(-c2[nH]c(-c3ccccc3)nc2SCC(=O)Nc2ccc3c(c2)OCCO3)cc1 -19.1%, CN1CCN(N)CC1 -4%, CCc1ccc(-c2nc(CN3CCCC(C(=O)NCc4ccc(C)cc4)C3)c(C)o2)cc1 (centres undefined) -5.12%, COc1ccc(-c2cc3nc(C)c(CCC(=O)Nc4cccc(C(F)(F)F)c4)c(C)n3n2)c(OC)c1 -21%, CCn1cc2nc(SCC(=O)Nc3ccccc3F)n(Cc3ccc(C)cc3)c(=O)c2n1 -31.8%, Cc1ccc(CNC(=O)Nc2cn(CC(C)C)c(=O)c3ccccc23)cc1 -19.6%, CN(C(=O)Cn1cc(S(=O)(=O)N2CCN(c3ccccc3F)CC2)c2ccccc2c1=O)c1ccc(Cl)cc1 -6.61%, COCC(C)NC(=O)c1cnn2c(C(F)F)cc(-c3ccccc3)nc12 (centres undefined) -3.59%, Clc1ccc2nsnc2c1NC1=NCCN1 -20.7%, Cc1cc(C)c(NC(=O)CN2c3ccccc3S(=O)(=O)c3ccccc32)c(C)c1 -28.4%, O=C(NCCCN1CCN(c2ccccc2F)CC1)c1cc2c(Cl)nc3ccccc3c2s1 -12.2%, CCCCCOc1ccc(NC(=O)Cc2csc(C)n2)cc1 -1.03%, O=C(Nc1sc2c(c1C(=O)Nc1ccc(Cl)cc1)CCCC2)c1cccs1 8.53% [at 11.5 µM, percent change from vehicle, -100% = no light], Cc1nnc(SCc2ccccc2Cl)c2cc3sccc3n12 13.7%, Cc1nc2c(C(=O)O)cnn2c(C)c1Cc1ccccc1 -5.42%, Cc1ccccc1C(=O)Nc1nc2nc(C)c(C)c(=O)n2[nH]1 -10.2%
